Test results from the supplement of paper PMC8948288.
Shown are siRNA guide strands that differ only in the seed, positions 2 to 7.

Tests used:
H4 = experiment: cell viability relative to siNT1 (ATP content); H4 human neuroglioma and GL261 mouse glioma; higher = less toxic; conditions: siRNA concentration 10 nM; 96 h; human
GL261 = experiment: as above; conditions: siRNA concentration 25 nM; 96 h; mouse
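Also: cells reverse transfected with siRNA duplexes via lipid reagent, ATP read by luminescence, triplicate wells, values scaled to mean viability with non-targeting control siNT1.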

| Sequence | cell viability (H4) [%] | cell viability (GL261) [%] |
| --- | --- | --- |
| UUUAGUGACAUGUAAACCA | 71.6 | 74.7 |
| UUUAGUUACAUGUAAACCA | 105 | 64.3 |
| UUUAUAAACAUGUAAACCA | 109 | 63.5 |
| UUUAUACACAUGUAAACCA | 76.6 | 54.8 |
| UUUAUAGACAUGUAAACCA | 91.5 | 83.5 |
| UUUAUAUACAUGUAAACCA | 106 | 61 |
| UUUAUCAACAUGUAAACCA | 86 | 68.7 |
| UUUAUCCACAUGUAAACCA | 70.1 | 23.3 |
| UUUAUCGACAUGUAAACCA | 86.4 | 71.7 |
| UUUAUCUACAUGUAAACCA | 102 | 34.6 |
| UUUAUGAACAUGUAAACCA | 114 | 61.8 |
| UUUAUGCACAUGUAAACCA | 19.8 | 16.7 |
| UUUAUGGACAUGUAAACCA | 82.8 | 38.7 |
| UUUAUGUACAUGUAAACCA | 83.1 | 21.5 |
| UUUAUUAACAUGUAAACCA | 105 | 55.4 |
| UUUAUUCACAUGUAAACCA | 97.2 | 27.6 |
| UUUAUUGACAUGUAAACCA | 105 | 64.9 |
| UUUAUUUACAUGUAAACCA | 77.2 | 55.3 |
| UUUCAAAACAUGUAAACCA | 95.6 | 44.1 |
| UUUCAACACAUGUAAACCA | 88.1 | 35.7 |
| UUUCAAGACAUGUAAACCA | 97.8 | 40.6 |
| UUUCAAUACAUGUAAACCA | 98.3 | 47.4 |
| UUUCACAACAUGUAAACCA | 100 | 22.1 |
| UUUCACCACAUGUAAACCA | 27 | 26.8 |

| Sequence | cell viability (H4) [%] | cell viability (GL261) [%] |
| --- | --- | --- |
| UUUCACGACAUGUAAACCA | 104 | 31.3 |
| UUUCACUACAUGUAAACCA | 65.8 | 17.2 |
| UUUCAGAACAUGUAAACCA | 97.2 | 43.4 |
| UUUCAGCACAUGUAAACCA | 69.9 | 11.6 |
| UUUCAGGACAUGUAAACCA | 72.8 | 18 |
| UUUCAGUACAUGUAAACCA | 77.9 | 20.1 |
| UUUCAUAACAUGUAAACCA | 82.6 | 31.3 |
| UUUCAUCACAUGUAAACCA | 70.7 | 42.2 |
| UUUCAUGACAUGUAAACCA | 87.6 | 47.2 |
| UUUCAUUACAUGUAAACCA | 87.1 | 32.8 |
| UUUCCAAACAUGUAAACCA | 79.7 | 55.9 |
| UUUCCACACAUGUAAACCA | 73.3 | 23.9 |
| UUUCCAGACAUGUAAACCA | 70.3 | 53.3 |
| UUUCCAUACAUGUAAACCA | 86.3 | 44.8 |
| UUUCCCAACAUGUAAACCA | 86.5 | 55 |
| UUUCCCCACAUGUAAACCA | 46.2 | 21.4 |
| UUUCCCGACAUGUAAACCA | 84.4 | 56.1 |
| UUUCCCUACAUGUAAACCA | 75.3 | 52.6 |
| UUUCCGAACAUGUAAACCA | 100 | 61.2 |
| UUUCCGCACAUGUAAACCA | 49.6 | 17.6 |
| UUUCCGGACAUGUAAACCA | 74.7 | 36 |
| UUUCCGUACAUGUAAACCA | 87.8 | 17.4 |
| UUUCCUAACAUGUAAACCA | 95.4 | 60.1 |
| UUUCCUCACAUGUAAACCA | 26.2 | 16.2 |

| Sequence | cell viability (H4) [%] | cell viability (GL261) [%] |
| --- | --- | --- |
| UUUCCUGACAUGUAAACCA | 103 | 31.4 |
| UUUCCUUACAUGUAAACCA | 71.4 | 33.6 |
| UUUCGAAACAUGUAAACCA | 99.3 | 51.3 |
| UUUCGACACAUGUAAACCA | 82.3 | 50.2 |
| UUUCGAGACAUGUAAACCA | 96.1 | 47 |
| UUUCGAUACAUGUAAACCA | 98.5 | 55.1 |
| UUUCGCAACAUGUAAACCA | 95.5 | 44.2 |
| UUUCGCCACAUGUAAACCA | 89.6 | 38.4 |
| UUUCGCGACAUGUAAACCA | 95.1 | 56.7 |
| UUUCGCUACAUGUAAACCA | 93.4 | 14.9 |
| UUUCGGAACAUGUAAACCA | 89.8 | 46.2 |
| UUUCGGCACAUGUAAACCA | 43.7 | 18.4 |
| UUUCGGGACAUGUAAACCA | 90.3 | 44 |
| UUUCGGUACAUGUAAACCA | 75 | 41.9 |
| UUUCGUAACAUGUAAACCA | 95.1 | 42.5 |
| UUUCGUCACAUGUAAACCA | 89.4 | 46 |
| UUUCGUGACAUGUAAACCA | 97.3 | 54.4 |
| UUUCGUUACAUGUAAACCA | 90.8 | 55.7 |
| UUUCUAAACAUGUAAACCA | 90.2 | 58.2 |
| UUUCUACACAUGUAAACCA | 77.4 | 22.2 |
| UUUCUAGACAUGUAAACCA | 108 | 51.9 |
| UUUCUAUACAUGUAAACCA | 79.2 | 54.5 |
| UUUCUCAACAUGUAAACCA | 87.8 | 38.9 |
| UUUCUCCACAUGUAAACCA | 25.9 | 11.9 |

| Sequence | cell viability (H4) [%] | cell viability (GL261) [%] |
| --- | --- | --- |
| UUUCUCGACAUGUAAACCA | 82.6 | 25.2 |
| UUUCUCUACAUGUAAACCA | 57.1 | 15.5 |
| UUUCUGAACAUGUAAACCA | 87.6 | 39.3 |
| UUUCUGCACAUGUAAACCA | 27 | 6.94 |
| UUUCUGGACAUGUAAACCA | 36.6 | 9.72 |
| UUUCUGUACAUGUAAACCA | 64.9 | 8.83 |
| UUUCUUAACAUGUAAACCA | 95 | 43.7 |
| UUUCUUCACAUGUAAACCA | 60.2 | 17.6 |
| UUUCUUGACAUGUAAACCA | 87.1 | 43.1 |
| UUUCUUUACAUGUAAACCA | 71 | 28.8 |
| UUUGAAAACAUGUAAACCA | 103 | 53.1 |
| UUUGAACACAUGUAAACCA | 93.2 | 53.2 |
| UUUGAAGACAUGUAAACCA | 102 | 53.9 |
| UUUGAAUACAUGUAAACCA | 96.4 | 41.7 |
| UUUGACAACAUGUAAACCA | 86.7 | 42.6 |
| UUUGACCACAUGUAAACCA | 47.6 | 27.6 |
| UUUGACGACAUGUAAACCA | 92 | 52.6 |
| UUUGACUACAUGUAAACCA | 81.4 | 51.6 |
| UUUGAGAACAUGUAAACCA | 97.8 | 52.1 |
| UUUGAGCACAUGUAAACCA | 73.5 | 32.7 |
| UUUGAGGACAUGUAAACCA | 59.6 | 50.4 |
| UUUGAGUACAUGUAAACCA | 88.1 | 42.3 |
| UUUGAUAACAUGUAAACCA | 98.5 | 59.6 |
| UUUGAUCACAUGUAAACCA | 76.2 | 54.7 |

| Sequence | cell viability (H4) [%] | cell viability (GL261) [%] |
| --- | --- | --- |
| UUUGAUGACAUGUAAACCA | 95.9 | 43.8 |
| UUUGAUUACAUGUAAACCA | 75.4 | 43.5 |
| UUUGCAAACAUGUAAACCA | 99.3 | 49.1 |
| UUUGCACACAUGUAAACCA | 69.2 | 37.8 |
| UUUGCAGACAUGUAAACCA | 88.8 | 57.3 |
| UUUGCAUACAUGUAAACCA | 73.8 | 34.7 |
| UUUGCCAACAUGUAAACCA | 62.7 | 56 |
| UUUGCCCACAUGUAAACCA | 53.1 | 42 |
| UUUGCCGACAUGUAAACCA | 77.8 | 39.1 |
| UUUGCCUACAUGUAAACCA | 57 | 12.9 |
| UUUGCGAACAUGUAAACCA | 96.6 | 61.2 |
| UUUGCGCACAUGUAAACCA | 85.5 | 37.5 |
| UUUGCGGACAUGUAAACCA | 83 | 48.7 |
| UUUGCGUACAUGUAAACCA | 94.1 | 45.6 |
| UUUGCUAACAUGUAAACCA | 111 | 56.3 |
| UUUGCUCACAUGUAAACCA | 91.6 | 30.8 |
| UUUGCUGACAUGUAAACCA | 85 | 40.9 |
| UUUGCUUACAUGUAAACCA | 102 | 64.9 |
| UUUGGAAACAUGUAAACCA | 88.2 | 64.9 |
| UUUGGACACAUGUAAACCA | 64.2 | 53.2 |
| UUUGGAGACAUGUAAACCA | 77.6 | 63.9 |
| UUUGGAUACAUGUAAACCA | 96.3 | 42.2 |
